Experimental data from the supplement of paper PMC10126150.
Sequences with one replicate were seen in a single cluster, so their values are uncertain.

system: ATP; assay: switch fluorescence ratio, 500 uM ATP over buffer (Cy3 cluster intensity, sum of 5 cycles each) (fold (ratio)); higher = stronger signal-on switching upon ATP binding; sequences stand for … in TCGTCGGCAGCGTCAGATGTGTATAAGAGACAGTTTTTTTTTTTTTTTTTTTTTTTTT…TC; conditions: aptamer strand: ATP DNA aptamer (quencher-CACCTGGGGGAGTATTGCGGAGGAAGG + anchor), 100 nM annealed; ATP concentration: 500 uM; one replicate
Summary of the method: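 The quencher-labelled ATP aptamer, at 100 nM, was annealed to Cy3-labelled switching-strand clusters on a modified Illumina MiSeq flow-cell. The clusters were imaged in selection buffer, then after 15 min with 500 uM ATP at 22 °C, and this buffer/ATP cycle ran five times with NaOH stripping and re-annealing between runs. Per-cluster fluorescence ratios, summed target-cycle over summed buffer-cycle Cy3 intensity, were averaged per switch-domain sequence. Clusters outside 100-1000 RFU were excluded.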
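Note: ATP exposure 15 min at 22 °C before imaging.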

Sequence	switch fluorescence ratio
TTAGTGACAC	1.02
TTAGTGATG	1.01
TTAGTGCAGA	1.02
TTAGTGCCA	0.999
TTAGTGCGCT	0.981
TTAGTGCGGG	0.971
TTAGTGTTTC	0.99
TTAGTTCGTC	1.07
TTAGTTTTA	1.03
TTATAACATC	1.08
TTATAAGTCG	0.947
TTATACATGA	1.02
TTATACATTA	1.03
TTATACCTTG	0.995
TTATACGATT	0.993
TTATAGGAGG	0.994
TTATAGGC	0.973
TTATAGTCGG	1.02
TTATAGTGCA	1
TTATAGTTCG	1.03
TTATATAATG	1.01
TTATATCTCG	1.01
TTATATTAT	1.03
TTATCACGAG	0.98
TTATCACGTA	1.16
TTATCAGCTC	0.979

Sequence	switch fluorescence ratio
TTATCCAAGG	1.05
TTATCCCAAG	1.04
TTATCCGCCC	1.91
TTATCCTATA	0.95
TTATCCTCGG	1.01
TTATCGAAAG	1.02
TTATCGGGCA	0.979
TTATCGTGGG	1.03
TTATGAGTGC	0.989
TTATGATC	1.02
TTATGATTAA	0.956
TTATGCAGA	0.999
TTATGCCCTA	0.969
TTATGCGCAG	1.08
TTATGCGCCC	1.05
TTATGCGCTT	2.28
TTATGCTTCG	0.988
TTATGGAGTC	1.04
TTATGGCGGA	1
TTATGGGACT	0.999
TTATGTAGGA	0.991
TTATGTCTAT	0.999
TTATGTCTCA	1.02
TTATGTCTCT	1
TTATGTGTGG	1.01
TTATGTTTAC	1.02

Sequence	switch fluorescence ratio
TTATTATGAC	0.985
TTATTATTAT	0.995
TTATTCCAAA	1.01
TTATTCCATG	1
TTATTGAGAC	1.01
TTATTGCAAG	1.04
TTATTGTGGC	1.01
TTATTTCCAT	0.986
TTCAAAAGCT	0.997
TTCAAAGTAA	1.02
TTCAAATAGG	1
TTCAACAGG	1.2
TTCAACGATC	1.01
TTCAACGCAC	2.33
TTCAAGAAAT	0.998
TTCAAGTATG	1.01
TTCAATCAA	1.04
TTCAATCAGT	0.994
TTCAATCTAG	1.03
TTCAATGGC	0.903
TTCAATTACT	1.01
TTCAATTCTC	1.07
TTCAATTTGA	1.01
TTCAATTTGT	1
TTCACACGAA	1.25
TTCACACGGC	1.02

Sequence	switch fluorescence ratio
TTCACATCAA	1.01
TTCACCGTTG	1.01
TTCACCTGCG	1.06
TTCACTCAAA	1.33
TTCACTTCG	0.989
TTCACTTGTT	1.04
TTCAGCAACA	1.13
TTCAGCCAT	0.961
TTCAGCGGTC	1.07
TTCAGGAAAG	0.987
TTCAGGAGG	1
TTCAGGCAAG	1.78
TTCAGGGATA	0.992
TTCAGGGCTG	0.872
TTCAGTCTAA	1.02
TTCAGTCTCC	1.02
TTCAGTCTGC	0.954
TTCAGTTATC	0.926
TTCAGTTCCG	0.998
TTCAGTTGTG	0.981
TTCAGTTTG	1.04
TTCATAACCT	1.3
TTCATCACTA	1.01
TTCATCGACG	1.01
TTCATCGCGG	1.04
TTCATCTTCG	1.04

Sequence	switch fluorescence ratio
TTCATGAGAT	1.03
TTCATGGAGA	0.973
TTCATGTCC	1.04
TTCATTATGT	0.975
TTCATTGAGC	0.98
TTCCACCCGC	2.05
TTCCAGGGAG	1.07
TTCCATGAAC	1.01
TTCCATGGAT	0.996
TTCCCAGGGA	1.09
TTCCCTACGT	1.35
TTCCCTAGAG	0.988
TTCCCTCCGA	2.93
TTCCCTTCGG	0.987
TTCCCTTGGA	1.04
TTCCGATTAA	1.03
TTCCGGGTT	1.03
TTCCGGTATG	1.03
TTCCGTCGCC	0.983
TTCCTACACT	1.21
TTCCTCATTC	1.25
TTCCTCGTAT	1.31
TTCCTCTCTG	1.06
TTCCTGAATT	2.24
TTCCTGACAT	1.01
TTCCTTATAG	0.958

Sequence	switch fluorescence ratio
TTCCTTGGAC	1.07
TTCCTTTATG	0.967
TTCGAAACCT	3.52
TTCGAATTGC	1.1
TTCGACCACA	1.1
TTCGACCAT	1.02
TTCGACCTA	1.1
TTCGACGATT	0.993
TTCGATATCG	1.02
TTCGATGAAT	1.02
TTCGCATTTT	1.03
TTCGCGTACA	1
TTCGCTTAAG	0.97
TTCGCTTCGC	1.05
TTCGGAATCA	1.02
TTCGGACCTG	1.05
TTCGGCCTTT	0.975
TTCGGCGGGG	1.03
TTCGGCTCGG	0.979
TTCGGGACCA	0.987
TTCGGGACTT	1.02
TTCGGGCGGG	1.02
TTCGGGTGTA	0.995
TTCGGTAGAT	0.94
TTCGTAAGA	1.02
TTCGTAATAA	2.05

Sequence	switch fluorescence ratio
TTCGTACAAA	0.993
TTCGTAGATG	1
TTCGTCCTCA	1.09
TTCGTGGCTA	1.06
TTCGTGTTA	1
TTCGTGTTGT	1.04
TTCGTTGCCA	1.17
TTCTAAAAA	1.94
TTCTAATGAT	0.971
TTCTACTATC	1.02
TTCTAGAACG	0.997
TTCTAGCTCT	1.07
TTCTAGGCCC	0.973
TTCTAGTGGT	0.964
TTCTATCGAC	1.04
TTCTATGGAT	0.982
TTCTATTTTG	1
TTCTCATCTT	0.973
TTCTCATGAG	1
TTCTCCAATT	1.06
TTCTCGACGC	2.32
TTCTCGAGCG	1.05
TTCTCGCAAG	2.56
TTCTCGCTGC	1.62
TTCTCGGGA	0.997
TTCTCGGGCG	0.965

Sequence	switch fluorescence ratio
TTCTCTGAGT	0.936
TTCTCTTTC	1
TTCTGAAGTG	0.978
TTCTGATATA	0.978
TTCTGCGGTT	1.02
TTCTGCTATA	1.19
TTCTGGAAAG	1.03
TTCTGGAATA	1.17
TTCTGGAGTC	1.2
TTCTGGCCCG	0.963
TTCTGTAAGG	0.993
TTCTGTAGCT	1.9
TTCTGTCTCG	0.997
TTCTGTGCCG	0.996
TTCTTAATGA	1.03
TTCTTAGCGA	1.11
TTCTTCTTG	0.974
TTCTTGACAG	1.01
TTCTTGAGTT	0.996
